Experimental data from PubChem BioAssay AID686978 (National Center for Advancing Translational Sciences (NCATS), 2013).
Values joined by “and” are separate entries in the source; they are usually repeats but may differ in a detail not shown here. Identical values can stand only once. Out of some 420,000 compounds screened, about 64,000 (15%) were called active. The shares of active, inactive and inconclusive entries below differ from those in the screen. Calls follow the shape of the dose curve; as a rule, active = well fitted inhibition curve with a large enough effect; inconclusive = small, poorly fitted or top-dose-only effect; inactive = flat fitted curve, though single readings scatter. Where the call is inconclusive, the potency comes from a doubtful curve fit.

Test: qHTS for Inhibitors of human tyrosyl-DNA phosphodiesterase 1 (TDP1): qHTS in cells in absence of CPT; also: nearly all actives have a fitted effect of over 55% in size
Details: DT40 Tdp1-/- hTDP1 cells, no CPT, ATP luminescence, 48 h; activity change, negative = growth inhibition: at 46.2 µM (top of the series)
Summary of the method: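 Camptothecin absent (DMSO only). Human TDP1-complemented DT40 knockout cells, 400 cells/well, 37 °C for minimum 48 hr; ATP measured via CellTiter-Glo, 30 min dark incubation, luminescence.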
% is scaled to controls: 0 for no effect and ±100 for the full control effect; potency is read from the fitted curve at half-maximal effect; tags tell the direction and shape of the fitted curve.

Compound | Potency | activity change, negative = growth inhibition
Nn1cc(-c2ccccc2)nc1SCC(=O)N1CCN(S(=O)(=O)c2ccc3ccccc3c2)CC1 | inconclusive: 25.9 µM [inhibitor, partial curve] | 
CCCCNC(=O)[C@@H]1CC=C[C@@H]2CCN(Cc3ccc(OC)c(OC)c3)C(=O)[C@@H]21 | inconclusive: 31.6 µM [inhibitor, partial curve, poor fit] | 
COc1ccc(N2C(=O)C3CCCN3C2c2cc(OC)c(OC)cc2OC)cc1 (stereo not given) |  | inactive: -20.9%
COCCN1C(=O)N(c2cccc(OC)c2)C(=O)C1CC(=O)Nc1ccccc1 (stereo not given) |  | inactive: -7.96%
COc1ccc(Nc2cc(C)nc3ccccc23)cc1 | active: 18.4 µM | 
C/C(=N\NC(=O)c1ccn(C)n1)c1ccc(NC(=O)c2cccc(F)c2)cc1 | inconclusive: 18.4 µM [inhibitor, partial curve] | 
COc1ccc(S(=O)(=O)N2CCN(Cc3cc(=O)n4ccccc4n3)CC2)cc1 | inconclusive: 29.1 µM [inhibitor, single point] | 
O=C1c2ccccc2C(=O)C1c1ccncc1 | active: 23.1 µM | 
COc1cccc(SCc2noc(C(=O)NC(C)C)c2C(=O)NC(C)C)c1 | inconclusive: 20.6 µM [inhibitor, single point] | 
CN1CCN(C2=C(Cl)C(=O)c3ccccc3C2=O)CC1 | active: 2.59 µM | 
CC(OC(=O)Cc1coc2cc3c(cc12)CCC3)C(=O)NCc1ccc2c(c1)OCO2 (stereo not given) |  | inconclusive: -18.7% [inhibitor]
Nc1nonc1C(=Nc1ccccc1)NO |  | inconclusive: -33.6% [inhibitor]
CCOC(=O)N1CCN(CC(=O)Nc2c(C(=O)OC)[nH]c3cccc(Cl)c23)CC1 | inconclusive: 25.1 µM [inhibitor, single point] | 
CCc1ccc(N2C(=O)CC(N3CCN(Cc4ccc5c(c4)OCO5)CC3)C2=O)cc1 (stereo not given) |  | inactive: 0.0765%
COC(C[C@@H]1O[C@@H]1[C@@H](O)[C@@H](C)OCc1ccccc1)OC |  | inactive: -12.3%
O=C(Nc1ccccc1)c1oc2ccccc2c1NC(=O)C1CC1 | inconclusive: 29.1 µM [inhibitor, single point] | 
CC1CN(Cc2cn(C)nc2-c2ccc(Oc3ccccc3)cc2)CCN1C (stereo not given) | inconclusive: 29.1 µM [inhibitor, single point] | 
Cc1ccc(S(=O)(=O)c2cc(N3CCOCC3)nc(-c3ccccc3)n2)cc1 |  | inactive: -12.1%
Cc1ccc(C2=NN(C(=O)C3CCCO3)C(c3ccco3)C2)cc1 (stereo not given) | inconclusive: 20.6 µM [inhibitor, single point] | 
Cc1cccc(/C=C/C(=O)c2cc(Br)ccc(=O)c2O)c1 | active: 3.26 µM | 
COc1ccc(Cl)cc1C(=O)NNC(=O)c1nn(C)c(=O)c2ccccc12 | active: 16.4 µM | 
C=CCOC(=O)C(C#N)c1nc2ccccc2nc1N1CCC(C(=O)OCC)CC1 (stereo not given) | active: 18.4 µM | 
CCOc1ccccc1C(=O)Nc1cc(C(=O)NCCc2ccccc2)ccc1Cl | inconclusive: 14.6 µM [inhibitor, partial curve, poor fit] | 
COc1cc(C(=O)NCCOc2ccc(C)c(C)c2)cc(OC)c1OC |  | inactive: -10.8%

Compound | Potency | activity change, negative = growth inhibition
CCc1ccc2nc(N(CCCN(C)C)C(=O)c3ccc4c(c3)OCCO4)sc2c1 | inconclusive: 20.6 µM [inhibitor, single point] | 
CN[C@H]1C[C@H]2c3[nH]c4ccccc4c3CCN2C(=O)[C@H]1[C@H](C)O | inconclusive: 29.1 µM [inhibitor, single point] | 
O=C(CCCOc1ccc(Cl)cc1)NC1CCCCC1 |  | inactive: -9.32%
CN(C)S(=O)(=O)c1cccc(C(=O)OCC(=O)c2c(N)n(C)c(=O)n(C)c2=O)c1 |  | inactive: -3.56%
O=C(NC1CCC1)C1CCC(=O)N(Cc2ccccc2F)C1 (stereo not given) |  | inactive: -3.65%
CN1C(=O)Cc2cc(S(=O)(=O)CCC(=O)Nc3ccc(Cl)cc3)ccc21 |  | inactive: 1.55%
COc1ccc(CCNC(=O)c2cnn(-c3cccc(C)c3)c2C2CCNCC2)cc1OC |  | inactive: -6.94%
COc1ccc(CNc2oc(COc3ccc(Cl)cc3)nc2C#N)cc1 | inconclusive: 8.2 µM [inhibitor, partial curve] | 
Cc1ccccc1C(=O)NC(C)c1ccc2c(c1)CCCC2 (stereo not given) | inconclusive: 16.4 µM [inhibitor, single point] | 
COc1ccccc1COc1cccn2c(N(C)C(=O)CCC3CCCC3)c(C)nc12 | active: 14.6 µM | 
CCOc1ccc2c(c1)c(=O)c(C(=O)c1ccccc1)cn2Cc1ccccc1F | active: 20.6 µM | 
O=C(CSc1nnc(CN2CCCCC2)n1-c1ccccc1)c1ccc2c(c1)OCO2 | active: 20.6 µM | 
O=C(c1ccccc1)N1CCC(c2nc3ccccc3o2)CC1 | inconclusive: 13 µM [inhibitor, partial curve] | 
COc1ccccc1C(=O)NCC(=O)N/N=C/c1ccc2c(c1)OCO2 | inconclusive: 25.9 µM [inhibitor, single point] | 
Cc1noc(C)c1Cn1c(C)c(C(=O)NCc2ccc3c(c2)OCCO3)sc1=O | active: 16.4 µM | 
Cc1cc(C)c(S(=O)(=O)N2CCCCC2CCNC(=O)C(=O)NCc2ccccn2)c(C)c1 (stereo not given) | inconclusive: 29.1 µM [inhibitor, single point] | 
Cc1ccccc1OCC(=O)NCCCNC(=O)c1ccccn1 |  | inactive: -11.9%
CC(OC(=O)c1cc(Cl)ccc1[N+](=O)[O-])C(=O)NC(C)c1ccc(F)cc1 (stereo not given) | inconclusive: 20.6 µM [inhibitor, single point] | 
COc1ccc(OC)c(CNS(=O)(=O)c2cc(-c3onc(C)c3C)ccc2C)c1 | inconclusive: 25.9 µM [inhibitor, single point] | 
CCN(CC)C(=O)c1sc2c(c1C)c(=O)n(-c1ccc(C)c(C)c1)c(=O)n2CC(=O)Nc1ccc(OC)cc1OC |  | inconclusive: -30% [inhibitor]
CC1(C)CC2CC(C)(CN2C(=O)COC(=O)c2cc(Cl)cc(Cl)c2N)C1 (stereo not given) | inconclusive: 35.5 µM [inhibitor, single point] | 
CC(C)Cc1cc(CN2CCC(CO)(Cc3cccc(C(F)(F)F)c3)CC2)[nH]n1 | inconclusive: 18.4 µM [inhibitor, single point] | 
CN(C)CCC(c1ccc(Br)cc1)c1ccccn1 (stereo not given) | inconclusive: 16.4 µM [inhibitor, partial curve, poor fit] and inconclusive: 206 nM [inhibitor, single point] | 
Cc1cccc(C(O)c2cnc(C)n2Cc2ccccc2)c1 (stereo not given) | active: 18.4 µM | 

Compound | Potency | activity change, negative = growth inhibition
CCN1CCN(CCCNC(=O)c2cc3c(=O)[nH]c4ccccc4c3s2)CC1 | inconclusive: 35.5 µM [inhibitor, single point] | 
C[C@H](NC(=O)c1nc[nH]c1C(=O)NCc1ccc(CNC(=O)OC(C)(C)C)cc1)C(=O)OCc1ccccc1 | active: 16.4 µM | 
CN(C)c1nc(-c2cccnc2)nc(-c2ccccc2)c1C#N | inconclusive: 7.31 µM [inhibitor, partial curve] | 
CCOC(=O)N1CCN(CC(=O)Nc2ccccc2C(=O)Nc2ccccc2)CC1 | inconclusive: 29.1 µM [inhibitor, single point] | 
CN1C(=O)/C(=C/c2cn(CC(=O)N3CCCCC3)c3ccccc23)NC1=S |  | inactive: -20%
COc1cccc(/C=N/NC(=O)CNC(=O)c2ccc(S(=O)(=O)N3CCCC3)cc2)c1OC |  | inactive: 0.724%
O=C(N/N=C/c1cc(Br)c(O)c(Br)c1)c1cccc(C(F)(F)F)c1 |  | inactive: -13.5%
COc1ccc(OC)c(CN2CCC(C(=O)N(C)CCc3ccc(OC)c(OC)c3)CC2)c1 |  | inactive: 13.1%
COc1ccc(/C=C/C(=O)Nc2cc(-c3nc4ccccc4o3)ccc2OC)cc1 | inconclusive: 3.26 µM [inhibitor, partial curve] | 
O=C(COC(=O)/C=C/c1ccc(Cl)cc1)NCc1cccs1 | inconclusive: 20.6 µM [inhibitor, partial curve] | 
C=C(C)CN(CC)Cc1c(C(=O)N(C)CCCC)nc2ccccn12 | inconclusive: 20.6 µM [inhibitor, single point] | 
CC(=O)c1cccc(NC(=O)Nc2cccnc2)c1 | inconclusive: 20.6 µM [inhibitor, partial curve] | 
CCOC(=O)c1nn(-c2ccccc2)c(C#N)c1NC(=O)c1nn(CC)cc1Br | active: 18.4 µM | 
CC(=O)c1ccc(NC(=O)CSc2nnc(-c3ccncc3)n2-c2ccccc2)cc1 |  | inactive: 0.981%
COc1cccc(OC)c1C(=O)NC(=S)N1CCN(c2ccc(C(F)(F)F)cc2[N+](=O)[O-])CC1 | inconclusive: 23.1 µM [inhibitor, partial curve] | 
O=C(CSc1ccccc1C(=O)N1CCN(c2ccccc2)CC1)N1CCCC1 |  | inactive: -23.2%
CCC(=O)c1ccccc1OCCCN1CCC(Cc2ccccc2)CC1 | inconclusive: 25.9 µM [inhibitor, single point] | 
COc1ccc([C@H]2C[C@H](O)[C@@H](n3cc(-c4ccc(F)cc4)nn3)CN2C(=O)c2cccs2)cc1 | inconclusive: 18.4 µM [inhibitor, partial curve, poor fit] | 
O=C1C2CC=CCC2C(=O)N1Cc1nnc(-c2ccccc2Br)o1 (stereo not given) |  | inactive: -4.88%
Cc1c(C(=O)NCc2ccc3c(c2)OCCO3)sc(=O)n1Cc1ccc2c(c1)OCO2 | inconclusive: 20.6 µM [inhibitor, single point] | 
Cc1cc(C)n2c(Nc3ccc4c(c3)OCCO4)c(-c3ccccc3)nc2n1 | inconclusive: 20.6 µM [inhibitor, single point] | 
CC(=O)NC12CC3CC(C1)CC(C(=O)Nc1ccc(C)c(S(=O)(=O)N4CCCCCC4)c1)(C3)C2 | inconclusive: 23.1 µM [inhibitor, single point] | 
